Measurements as given in PMC7442609 (ACS chemical biology, 2020).
Peptide text beside a SMILES is read from it. * marks the point of attachment. Cbz = O=C(OCc1ccccc1)*

Each compound was assayed on RAW 264.7 cells (assay: Mtphagy dye / lysotracker mitophagy assay). Settings: 5 μM, 16 hr.

Compound | mitophagy (percent mitochondria positive lysosomes) compared to DMSO
N#CC(C#N)=NNc1cccc(Cl)c1 [CCCP, Carbonyl cyanide m-chlorophenylhydrazone] | significant increases
CC(C)C[C@@H](C=O)NC(=O)[C@H](CC(C)C)NC(=O)[C@H](CC(C)C)NC(=O)OCc1ccccc1 [MG-132] (Cbz-Leu-Leu-Leu-aldehyde) | little to no effect
CO[C@H]1C[C@@H]2CC[C@@H](C)[C@@](O)(O2)C(=O)C(=O)N2CCCC[C@H]2C(=O)O[C@H]([C@H](C)C[C@@H]2CC[C@@H](O)[C@H](OC)C2)CC(=O)[C@H](C)/C=C(\C)[C@@H](O)[C@@H](OC)C(=O)[C@H](C)C[C@H](C)/C=C/C=C/C=C/1C [RAPA, rapamycin] | significant increases
NNC(=O)c1ccncc1 [isoniazid] | little to no effect

These compounds were tested on RAW 264.7 cells (assay: CellTiter Glo cell viability). Settings: not given.
Type: cell-based

Compound | cytotoxicity (CellTiter Glo)
C=C(NC(=O)C(=C)NC(=O)c1csc(-c2ccc3c(n2)-c2csc(n2)-c2csc(n2)C2C(C)CC(O)N2C(=O)C(Cc2ccc(O)cc2)N=C(O)C2CSC(=N2)C(Cc2ccccc2)N=C(O)c2csc(n2)C(CC(N)=O)N=C(O)c2nc-3oc2C)n1)C(=O)O (stereo not drawn) [GE, GE37468] | Neither GE nor NOS, both of which exhibited anti-proteasome activity, proved cytotoxic
C=C(NC(=O)c1csc(-c2nc3c(cc2O)-c2nc(cs2)C(=O)NC(C(C)O)C(=O)N/C(=C\C)c2nc(cs2)C(=O)NC2CC(O)C(=O)OCc4cccc5[nH]c(c(C)c45)C(=O)SCC(NC(=O)c4csc2n4)c2nc-3cs2)n1)C(N)=O (stereo not drawn) [NOS, nosiheptide] | Neither GE nor NOS, both of which exhibited anti-proteasome activity, proved cytotoxic
C=C(NC(=O)C(=C)NC(=O)c1csc(C2=N[C@@H]3c4csc(n4)[C@H]4NC(=O)c5csc(n5)[C@H]([C@](C)(O)[C@@H](C)O)NC(=O)[C@H]5CSC(=N5)/C(=C/C)NC(=O)[C@H]([C@@H](C)O)NC(=O)c5csc(n5)[C@]3(CC2)NC(=O)[C@H](C)NC(=O)C(=C)NC(=O)[C@H](C)NC(=O)[C@H]([C@@H](C)CC)N[C@@H]2C=Cc3c([C@H](C)O)cc(nc3[C@H]2O)C(=O)O[C@@H]4C)n1)C(N)=O [TSR, thiostrepton] | displayed cytotoxicity

These compounds were tested against T1, proteasomes (Mus musculus, UniProt O55234+P70195+Q60692) (assay: Ub-R-GFP reporter assay of proteasomal activity in cells). Settings: RAW 264.7 cells, 16 hours.
T1 sequence (O55234 60-264): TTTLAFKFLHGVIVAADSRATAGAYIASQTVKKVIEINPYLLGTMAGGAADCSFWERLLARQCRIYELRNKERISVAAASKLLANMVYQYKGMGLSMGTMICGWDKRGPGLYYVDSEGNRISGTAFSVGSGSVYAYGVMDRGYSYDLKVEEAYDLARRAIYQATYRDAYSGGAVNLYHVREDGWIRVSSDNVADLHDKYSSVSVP
T1 sequence (Q60692 1-238): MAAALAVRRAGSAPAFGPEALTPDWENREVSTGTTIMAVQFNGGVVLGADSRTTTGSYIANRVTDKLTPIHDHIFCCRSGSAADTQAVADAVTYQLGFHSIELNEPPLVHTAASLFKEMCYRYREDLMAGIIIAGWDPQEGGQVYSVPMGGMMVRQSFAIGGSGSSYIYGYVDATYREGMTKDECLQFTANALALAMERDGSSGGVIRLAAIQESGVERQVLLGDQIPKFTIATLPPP
T1 sequence (P70195 44-277): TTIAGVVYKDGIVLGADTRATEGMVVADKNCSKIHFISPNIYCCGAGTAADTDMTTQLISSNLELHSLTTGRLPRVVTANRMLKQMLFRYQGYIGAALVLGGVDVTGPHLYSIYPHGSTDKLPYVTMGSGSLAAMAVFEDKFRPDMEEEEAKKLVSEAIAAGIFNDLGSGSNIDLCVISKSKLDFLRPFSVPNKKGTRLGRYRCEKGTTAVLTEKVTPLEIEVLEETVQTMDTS
Type: cell-based, murine

Compound | proteasome inhibition in cellular Ub-R-GFP assay (in words)
C=C(NC(=O)C(=C)NC(=O)c1ccc2c(n1)-c1coc(n1)C(=C)NC(=O)C(=C)NC(=O)c1nc(oc1C)C(=C)NC(=O)C(C(C)(C)O)NC(=O)C(=C)NC(=O)c1nc(oc1C)/C(=C/C)NC(=O)C(C(C)O)NC(=O)c1csc-2n1)C(N)=O (stereo not drawn) [BER, berninamycin] | no detectable activity
thiocillin III [TCIII] | no detectable activity
